Measurements as given in the supplement of paper PMC3334620.
Whole data set: some 33,000 sequences, median “E-score (-0.5 to 0.5)” near -0.021, cut for the highest 2% near 0.32. Some of the results follow.

These sequences were tested against T1, Zap1 (UniProt P47043) (assay: PBM E-score (8-mer binding enrichment) (E-score (-0.5 to 0.5)); higher = stronger / more preferred TF binding; most listed sequences are background and not binding sites). Settings: protein concentration: 200 nM; construct: GST-full length.
T1 sequence: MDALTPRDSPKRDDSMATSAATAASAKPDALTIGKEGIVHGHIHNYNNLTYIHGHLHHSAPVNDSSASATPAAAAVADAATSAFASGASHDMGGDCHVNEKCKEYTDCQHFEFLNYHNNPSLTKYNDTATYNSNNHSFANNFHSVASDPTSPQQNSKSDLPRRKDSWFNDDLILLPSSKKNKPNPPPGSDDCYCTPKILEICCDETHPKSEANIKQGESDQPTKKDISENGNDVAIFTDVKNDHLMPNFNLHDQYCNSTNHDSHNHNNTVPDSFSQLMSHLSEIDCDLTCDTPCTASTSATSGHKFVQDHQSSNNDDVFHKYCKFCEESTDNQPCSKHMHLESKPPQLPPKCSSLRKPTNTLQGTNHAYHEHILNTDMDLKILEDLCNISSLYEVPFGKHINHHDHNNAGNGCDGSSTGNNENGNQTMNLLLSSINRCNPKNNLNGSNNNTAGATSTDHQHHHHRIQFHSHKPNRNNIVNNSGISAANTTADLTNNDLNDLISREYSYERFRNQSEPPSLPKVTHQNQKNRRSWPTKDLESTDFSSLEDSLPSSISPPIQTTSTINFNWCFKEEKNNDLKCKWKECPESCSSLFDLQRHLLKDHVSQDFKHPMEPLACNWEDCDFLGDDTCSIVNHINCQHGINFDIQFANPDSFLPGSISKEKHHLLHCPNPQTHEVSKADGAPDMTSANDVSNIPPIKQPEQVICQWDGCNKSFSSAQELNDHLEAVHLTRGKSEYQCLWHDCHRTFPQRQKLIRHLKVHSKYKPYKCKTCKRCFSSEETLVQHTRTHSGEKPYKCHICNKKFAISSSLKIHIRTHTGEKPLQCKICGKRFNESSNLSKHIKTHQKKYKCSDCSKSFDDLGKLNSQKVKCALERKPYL
Method: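 Universal 'all 10-mer' protein binding microarrays (Agilent AMADID 015681) probed with GST-tagged S. cerevisiae TFs (full-length or DBD) made by in vitro transcription/translation (PURExpress), about 100-200 nM. Bound TF was detected with fluorescent anti-GST. Each ungapped 8-mer (which stands for itself and its reverse complement) is scored by the PBM enrichment score (E-score), a modified Wilcoxon-Mann-Whitney statistic from -0.5 to +0.5, computed with the Universal PBM Analysis Suite. Scale: above 0.35 generally sequence-specific binding.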

| Sequence | PBM E-score |
| --- | --- |
| GACCCAGA | 0.11 |
| CACTTATG | 0.0769 |
| GCGCCAAC | -0.0397 |
| ATTAAAAC | 0.186 |
| CGCGGGAG | -0.239 |
| TCTTCTCA | -0.0162 |
| ACCAGAGT | 0.0585 |
| AAGATCCC | -0.17 |
| AGGCGATC | -0.235 |
| ACCGCGAT | 0.131 |
| ATTGGTGA | -0.0286 |
| CGTGGTGC | -0.0971 |
| GGATGAGA | -0.0656 |
| CCACATGC | 0.146 |
| GAGTTCAA | 0.00121 |
| ATTACACA | 0.209 |
| AAAGATTG | -0.08 |
| CGGTTTGC | 0.00586 |
| ACTTAGGG | 0.281 |
| CTGAATCC | -0.112 |
| GGGCGGCA | -0.166 |
| AGGAATCG | -0.054 |
| CCGAGCGG | 0.077 |
| AGCCTCAG | -0.118 |
| GTCATTTA | 0.0508 |

| Sequence | PBM E-score |
| --- | --- |
| CATGGTGC | -0.147 |
| AGGGTTTG | 0.292 |
| AAGTTTAG | 0.023 |
| CACCGCGC | -0.0615 |
| ATCACACG | 0.056 |
| CGGTTTGA | 0.084 |
| ATTCTGAA | 0.13 |
| CAGGAGCA | -0.15 |
| CATCGTCC | -0.119 |
| GCGGCCGA | -0.142 |
| AAGACTGC | -0.193 |
| ACACAGCA | 0.131 |
| AGCGACTG | 0.117 |
| TAAATAGA | -0.0602 |
| CAAAAATG | 0.0301 |
| CCTGACGC | -0.219 |
| AAAGGTTG | 0.336 |
| AGGACAGG | -0.1 |
| CTATTTGA | 0.0912 |
| GAAGATAC | -0.134 |
| TAATGTCA | -0.0255 |
| CCCACCCA | 0.323 |
| AACTAGGA | -0.00727 |
| GCTAGGCC | -0.192 |
| AACTATGG | 0.0897 |

| Sequence | PBM E-score |
| --- | --- |
| AGTATTAT | 0.124 |
| AGAACTTC | -0.175 |
| ACCAGAGA | 0.0732 |
| GCACTAAA | 0.0634 |
| GGCGAATA | -0.193 |
| CAGCTGGA | -0.131 |
| ACTGGACG | -0.266 |
| GTTAACGA | 0.0943 |
| AGATTGTC | -0.198 |
| GGAGTCAA | -0.159 |
| CTCTGCGA | -0.0931 |
| AAATACGT | -0.131 |
| CTCGTTAC | -0.0784 |
| TATGTCGA | -0.115 |
| CCGACCCC | -0.105 |
| AAGGCTCC | -0.262 |
| AACGAACG | -0.0519 |
| CTTGTCTA | 0.0288 |
| CTATCACC | 0.121 |
| AGACGCTC | -0.261 |
| AGATCCCA | -0.222 |
| CTTTACAA | 0.115 |
| CTTCTTGA | 0.0838 |
| GGCACGCA | -0.139 |
| CCCCTAGC | -0.167 |

| Sequence | PBM E-score |
| --- | --- |
| ACAGTAAC | 0.156 |
| ACGCGGGG | 0.165 |
| CACTGCTA | -0.102 |
| AACTAGTG | -0.0702 |
| CGTCCGAG | -0.104 |
| CAATCCTA | -0.0343 |
| AGTCGGGG | -0.127 |
| AGACCTAG | -0.123 |
| ATAGGCGA | -0.11 |
| GGCTGACC | -0.0633 |
| CGGTCTAC | -0.149 |
| AACAATCG | -0.073 |
| GATAACCA | 0.426 |
| CGTTAGTA | 0.0365 |
| CCTTAAGC | 0.0365 |
| CGACGAGC | -0.229 |
| ACTGGGGC | -0.176 |
| TCGGAGAA | -0.0145 |
| AGGACATG | -0.0235 |
| TCGAGCAA | 0.0473 |
| CGGACTTA | -0.0546 |
| GACAGGTC | -0.207 |
| GCAGGCGA | -0.224 |
| CAGCGTTA | 0.0255 |
| TAAATAAA | 0.13 |

| Sequence | PBM E-score |
| --- | --- |
| ACTAAGTA | -0.0162 |
| CCGGCCAC | 0.185 |
| AAGGGCGC | 0.0237 |
| AGGTATGC | 0.116 |
| CATCTACC | 0.021 |
| AACACGGA | -0.028 |
| ATAGTGCG | -0.0953 |
| CCCTCTGC | -0.33 |
| CCGATACA | -0.00212 |
| CTCAAACC | 0.0963 |
| AATGGCGG | -0.0885 |
| ATGCTGCG | -0.311 |
| ACTAGTTG | -0.226 |
| GTACAGAC | -0.0812 |
| CCATCTTA | -0.129 |
| CACAGTAG | 0.0475 |
| CGAGGGAG | -0.197 |
| AATCGGTC | -0.0793 |
| CAGCAGCA | -0.198 |
| AAGTCTGG | -0.00476 |
| ATCATATG | 0.12 |
| AGTCTGCA | -0.297 |
| GACTCGCA | -0.0704 |
| GATAACGA | 0.00419 |
| ATCCATCG | -0.183 |

| Sequence | PBM E-score |
| --- | --- |
| ATGTAGAG | 0.041 |
| CCCTCTAG | 0.0878 |
| CAAAATTG | 0.141 |
| CACAATGA | 0.0991 |
| AACCCGGC | 0.254 |
| AGTCGGGA | -0.192 |
| GACTGCGC | -0.23 |
| TAGGGGCA | -0.0624 |
| CATACTCA | -0.0395 |
| CTTTAAAC | 0.0184 |
| CGGATGAA | 0.127 |
| GCTCTTCA | -0.279 |
| ACCTCGTA | 0.189 |
| CGCCACAC | -0.147 |
| ATAAAACA | 0.0976 |
| CCATAGCA | -0.14 |
| CTCAAGGA | -0.00489 |
| AAGCGCTG | -0.143 |
| ACCCATAG | 0.196 |
| TCAGCCGA | -0.172 |
| AAGACCTC | 0.00604 |
| GCAGGACA | 0.0628 |
| CCTCGCTA | -0.162 |
| CTGTTACA | 0.0543 |
| ATATAAGA | 0.21 |

| Sequence | PBM E-score |
| --- | --- |
| AAATAAGA | 0.0511 |
| ACCCGTTA | 0.287 |
| CGTTTGCA | -0.0346 |
| CAATGCTA | -0.0663 |
| CCGCTCGC | -0.129 |
| AGGCCAAA | 0.0849 |
| CAAGGAAC | 0.141 |
| CTGTCGAA | -0.107 |
| AGTGATAA | 0.0174 |
| AAAGCAAG | -0.0115 |
| AAGATTCG | 0.0593 |
| GCTTAAGA | -0.157 |
| AGCTAACG | -0.102 |
| ATGCAGAC | 0.0215 |
| TCAGGCAA | -0.154 |
| CCCATGAA | 0.155 |
| CTTCCAAA | 0.0642 |
| CGGAGCTC | -0.223 |
| AACAAATG | 0.154 |
| CCTTTTAC | 0.2 |
| GGACATAC | 0.0076 |
| ACTTAGAT | 0.0667 |
